Source: patent US20210363269A1 (ALX ONCOLOGY, published 2021)

What was measured:
[1] = biological target: T1, cynomolgus SIRP-α D1 domain (cyno1) (cynomolgus monkey, UniProt Q5TFQ8 30-148 (human entry), limits assumed); experiment: SPR, Langmuir fit
T1 chain: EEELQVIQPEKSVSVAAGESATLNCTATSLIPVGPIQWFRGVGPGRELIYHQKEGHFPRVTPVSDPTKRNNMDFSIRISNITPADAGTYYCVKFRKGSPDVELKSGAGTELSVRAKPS
Method in brief: (§1)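 Dissociation rate constants (koff) were measured on a ProteOn XPR36 instrument by Langmuir model fitting. Antibody clones in scFv-Fc format were captured from pre-filtered culture media onto a GLC chip with about 4000 RU of amine-coupled anti-human IgG Fc. SIRP analytes ran in PBS pH 7.4 with 0.01% Tween-20 at 25° C, and the model used was 1:1, applied to data double-referenced against interspot and buffer-blank responses.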

human SIRPγ isoform 1 = biological target: T2, human SIRPγ isoform 1 (human, UniProt Q9P1W8 29-147); experiment: SPR, Langmuir fit
Sequence of human SIRPγ isoform 1 (Q9P1W8 29-147 limits assumed): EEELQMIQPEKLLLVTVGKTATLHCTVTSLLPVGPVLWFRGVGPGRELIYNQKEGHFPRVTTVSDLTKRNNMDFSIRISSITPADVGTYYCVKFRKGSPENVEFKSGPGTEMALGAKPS
T2 construct: also called SIRPg; sirpg
Method in brief: as §1

human SIRPβ isoform 1 = biological target: T3, human SIRPβ isoform 1 (human, UniProt O00241 30-148); experiment: SPR, Langmuir fit
Sequence of human SIRPβ isoform 1 (O00241 30-148 limits assumed): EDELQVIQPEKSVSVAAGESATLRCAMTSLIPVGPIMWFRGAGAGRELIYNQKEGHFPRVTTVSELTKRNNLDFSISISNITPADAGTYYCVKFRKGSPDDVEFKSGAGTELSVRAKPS
T3 construct: also called SIRPb; sirpb1
Method in brief: as §1

[2] = biological target: T4, cynomolgus SIRP-α D1 domain (cyno2) (cynomolgus monkey, UniProt Q5TFQ8 30-148 (human entry), limits assumed); experiment: SPR, Langmuir fit
T4 chain: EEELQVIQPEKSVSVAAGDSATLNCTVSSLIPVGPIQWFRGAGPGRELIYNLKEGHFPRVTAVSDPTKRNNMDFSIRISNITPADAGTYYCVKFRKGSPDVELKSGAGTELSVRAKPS
Method in brief: as §1

[3] = biological target: T5, human SIRP-α v2 D1 domain (human); experiment: SPR, Langmuir fit
T5 construct: also called human v2
Method in brief: as §1

[4] = biological target: T6, high affinity SIRP-α D1 variant CV1-3; experiment: SPR, Langmuir fit
T6 chain: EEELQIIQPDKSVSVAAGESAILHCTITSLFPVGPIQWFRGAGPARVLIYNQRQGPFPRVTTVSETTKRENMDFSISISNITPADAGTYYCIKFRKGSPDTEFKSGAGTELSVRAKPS
Method in brief: as §1

[5] = biological target: T7, human SIRP-α v1 D1 domain (human, UniProt P78324 31-149); experiment: SPR, Langmuir fit
T7 construct: also called human v1
T7 sequence (P78324 31-149 limits assumed): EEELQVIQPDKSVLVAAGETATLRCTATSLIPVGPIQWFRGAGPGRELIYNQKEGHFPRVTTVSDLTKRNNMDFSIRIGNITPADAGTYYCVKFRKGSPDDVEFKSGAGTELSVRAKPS
Method in brief: as §1

[6] = biological target: T8, NOD mouse SIRP-α D1 domain (mouse (NOD strain)); experiment: SPR
T8 chain: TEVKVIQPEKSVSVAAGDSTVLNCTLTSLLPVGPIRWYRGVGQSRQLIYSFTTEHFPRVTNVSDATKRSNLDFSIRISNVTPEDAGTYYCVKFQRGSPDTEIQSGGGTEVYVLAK
Method in brief: as §1

[7] = biological target: T9, mouse 129 SIRP-α D1 domain (mouse (129 strain), UniProt P97797 32-150); experiment: SPR
T9 construct: also called m129
T9 chain: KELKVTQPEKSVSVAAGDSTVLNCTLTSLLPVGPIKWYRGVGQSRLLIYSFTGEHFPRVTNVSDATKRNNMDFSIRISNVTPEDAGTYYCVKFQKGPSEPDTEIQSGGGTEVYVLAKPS
Method in brief: as §1

[8] = biological target: T10, C57BL/6 mouse SIRP-α D1 domain (mouse (C57BL/6 strain), UniProt P97797 32-148); experiment: SPR
T10 sequence: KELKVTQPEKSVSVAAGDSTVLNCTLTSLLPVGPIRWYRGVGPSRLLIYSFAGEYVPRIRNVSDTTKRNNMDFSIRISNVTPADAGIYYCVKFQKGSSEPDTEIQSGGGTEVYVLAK
Method in brief: as §1

B1: S135 (scFv)
scFv: EIVLTQSPATLSVSPGERVTFSCRASQNVRSDIAWYQQKPGQAPRLLIYAASSRDTGIPDRFSGSGSGTDFTLTISSLQSEDFGVYYCQQYYDWPPFTFGGGTKVEIKGQSSRSSGGGGSSGGGGSDVQLVESGGGVVRPGESLRLSCAASGFSFSIYAMSWVRQAPGEGLEWVSTIGADDTYYADSVKGRFTISRDNSKNTLYLQMNSLRAEDTAVYYCAKDSTVGWSGDFFDYWGLGTLVTVSSSL[letters of human IgG1 Fc with C220S (EU numbers) and a few adjoining residues left out]
With B1 the koff [1] was 0.000473 s⁻¹, the koff (human SIRPγ isoform 1) was 0.00146 s⁻¹ and the koff (human SIRPβ isoform 1) was 0.000521 s⁻¹. For the same binder, the koff [2] was 0.000388 s⁻¹, the koff [3] was 8.78e-05 s⁻¹ and the koff [4] was 0.00363 s⁻¹. The koff [5] was 0.000658 s⁻¹, the binding result [6] was “no binding (tested: Koff > 5 × 10^3 (legend))” and the binding result [7] was “no binding (tested: Koff > 5 × 10^3 (legend))”. B1: no binding (tested: Koff > 5 × 10^3 (legend)) [8].

B2: S115 (scFv)
scFv: ETVLTQSPATLSVSPGERATLSCRASQTVGSKLAWHQQKPGQAPRLLIYDATNRATGISDRFSGSGSGTDFTLTISSLQTEDSAVYYCQQYYYWPPYRFGGGTKVEIKGQSSRSSGGGGSSGGGGSDVQLVESGGGVVRPGESLRLSCAASGFSFSSYAMNWVRQAPGEGLEWVSRINSGGGGTDYAESVKGRFTISRDNSENTLYLQMNSLRAEDTAVYYCAKQYDWNSFFDYWGLGALVTVSSSL[letters of human IgG1 Fc with C220S (EU numbers) and a few adjoining residues left out]
Binder B2 has a koff [1] of 2.22e-05 s⁻¹, a koff (human SIRPγ isoform 1) of 3.34e-05 s⁻¹ and a koff (human SIRPβ isoform 1) of 3.69e-05 s⁻¹. It also gave a koff [2] of 6.91e-05 s⁻¹, a koff [3] of 1.95e-05 s⁻¹ and a koff [4] of 0.000484 s⁻¹. For the same binder, the koff [5] was 7.86e-06 s⁻¹, the binding result [6] was “no binding (tested: Koff > 5 × 10^3 (legend))” and the binding result [7] was “no binding (tested: Koff > 5 × 10^3 (legend))”. B2: no binding (tested: Koff > 5 × 10^3 (legend)) [8].
